Here are results for 83 compounds from paper PMC12040169 (PLOS Biology, 2025).

The other results are listed elsewhere or left out.

The experiment concerns T1, C. trachomatis L2/434/Bu expressing GFP (CTL2-GFP).
T1 construct: L2/434/Bu GFP intracellular growth in HeLa cells
Details: species or system HeLa; C. trachomatis total inclusion area by high-content imaging, normalised to DMSO. The settings on record: total inclusion area; 28.5 h, 10 µM; inhibitor. The essentials: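 High-content imaging followed the bulk GFP/resorufin measurement: fixed, Hoechst-stained cells were scored for GFP inclusions and host nuclei per well. Total inclusion area and count served as growth proxies, nuclei number as the viability proxy. MIC calculation matched the bulk assay.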
`C=CCNS(=O)(=O)c1ccc(NC(=O)Nc2ccc(Cl)cc2)cc1` [CBK269315]: the “% of control remaining” value is reported as 72.0379.

As for `COc1ncccc1-c1csc(C2CN3CCCC3CO2)n1` (centres unmarked) [CBK304110], the “% of control remaining” value stood at 61.0121. To `O=C(NN1C(=O)c2ccccc2C1=O)c1cc(C(=O)NN2C(=O)c3ccccc3C2=O)cc(N2C(=O)c3ccccc3C2=O)c1` [CBK262100] belongs 99.3562; to `O=C1Nc2ccccc2SC1(O)C(F)(F)F` (centres unmarked) [CBK025554], 104.999.

With `CCOc1ccc(C(CC(=O)O)C(=O)O)cc1` (centres unmarked) [CBK261363], the “% of control remaining” value amounted to 85.7088.

In the case of `CS(=O)(=O)N1CCN(c2nc(C(F)(F)F)nc3ccsc23)CC1` [CBK304594], the “% of control remaining” value was determined as 72.1694. To `Brc1ccc(CSc2nnc[nH]2)cc1` [CBK026361] belongs 42.2344. Take `COC(=O)Nc1nc(Cl)cc(Cl)n1` [CBK027433]: the “% of control remaining” value came to 35.2833. As to `CCOc1cc(C)c(C(C)C)cc1S(=O)(=O)NCc1ccccn1` [CBK268080], the “% of control remaining” value worked out at 97.3959. On to `O=C1c2ccccc2C(=O)N1CCc1nc2c3c4c(sc3ncn2n1)CCCCC4` [CBK268327], for which the “% of control remaining” value came out at 123.544. On to `OC1(c2cccnc2F)CCN(Cc2cccc(F)c2)CC1` [CBK284373], for which the “% of control remaining” value came out at 89.0817. To `CCN(C)C(=O)N1CCN(CCCC(c2ccc(F)cc2)c2ccc(F)cc2)CC1` [CBK024910C] belongs 72.6146; to `CC(C)(C)Nc1nc(OCC#N)nc(N2CCCCC2)n1` [CBK269483], 67.153; to `Cn1nc(-c2ccc(F)cc2)n(-c2ccncc2)c1=O` [CBK282294], 103.512.

`CCCn1ncc(C(=O)NC(CC)c2cn3cccnc3n2)c1C` (centres unmarked) [CBK307640]: the “% of control remaining” value was 88.0769. To `OC[C@@H](c1ccccc1)N1CC[C@H]2c3ccc(Br)cc3CC[C@H]21` [CBK017507C] belongs 56.2001. To `CCC(Sc1nc(N)cc(=O)[nH]1)C(=O)Nc1ccc2ccccc2c1` (centres unmarked) [CBK265761] belongs 78.9333; to `Cc1nc(S(=O)(=O)Nc2nc(C(C)C)ns2)cn1C` [CBK051323], 37.1807. The same measure for `Cc1ccccc1-n1c(Cc2ccccc2)nc2c(cnn2-c2ccccc2)c1=O` [CBK262310]: 71.7065. On to `CN(CC(=O)NCc1ccco1)C1CCCCCC1` [CBK254305], for which the “% of control remaining” value is recorded as 80.9598.

Turning to `O=C(c1ccco1)N1CCC2(CC1)Nc1cccnc1-n1cccc12` [CBK284506], the “% of control remaining” value is recorded as 84.349.

As to `Cc1nc2ccccn2c1-c1csc(Nc2ccc(C(=O)O)cc2)n1` [CBK261634B], the “% of control remaining” value is reported as 30.7505. To `CCCC(=O)NC(c1ccc(OC)cc1)c1cc(Cl)c2cccnc2c1O` (centres unmarked) [CBK293944] belongs 110.952; to `OCCCNC(=S)Nc1ccc(Br)cc1Cl` [CBK086487], 54.7274. To `Cc1cc(C)nc(Nc2n[nH]c(-c3ccccc3Cl)n2)n1` [CBK288167] belongs 91.972; to `O=C(NCc1cccs1)c1ccccc1-n1cccc1` [CBK149584], 91.147; to `O=C(CN1C(=O)CSc2ccccc21)Nc1ccccc1C(=O)N1CCOCC1` [CBK267343], 97.8264. The same measure for `O=C(NCc1ccccn1)c1ccc(CNS(=O)(=O)c2cccc(C(F)(F)F)c2)cc1` [CBK267291]: 110.505. Take `CN1CCN(c2nccnc2OCC2COc3ccccc3O2)CC1` (centres unmarked) [CBK003899C]: the “% of control remaining” value is 19.4274.

With `C[S+]([O-])CCNC(=O)Cn1c(-c2cccs2)cc2cccnc21` (centres unmarked) [CBK282556], the “% of control remaining” value came to 116.304.

Consider `O=C(c1ccc2c(c1)ncn2CCO)N1CCC(c2ccccc2F)C1` (centres unmarked) [CBK307075], for which the “% of control remaining” value is given as 104.957. The same measure for `CC(C)c1ccc(S(=O)(=O)NCCC#N)cc1` [CBK044722]: 90.2108; for `Cc1ccc2[nH]c(=O)c(CNc3ccc4[nH]ncc4c3)cc2c1` [CBK281936]: 83.8154.

As for `Cc1ccc(C)c(C2CCCN2C(=O)c2ccc(=O)n(CC(=O)N(C)c3ccccc3)c2)c1` (centres unmarked) [CBK285654], the “% of control remaining” value worked out at 97.9671. As for `CCCc1[nH]nc(O)c1CCc1c(F)cccc1Cl` [CBK081121], the “% of control remaining” value was determined as 110.099. The same measure for `O=C1N(CN2CCN(C(c3ccccc3)c3ccccc3)CC2)c2ccccc2C12OCCCO2` [CBK265538]: 116.853; for `C/C(=C\C(=O)Nc1ccc(O)cc1C(=O)O)c1ccccc1` [CBK265125]: 95.5712. To `O=C(c1ccccc1F)N1CCC(O)(c2ccc(F)cc2)CC1` [CBK281943] belongs 107.804; to `O=C1CO[C@H]2CN(S(=O)(=O)c3ccccc3)C[C@H]2N1c1ccccc1` [CBK289236], 115.061. For the compound `Oc1ccc(/C=N/N=C/c2ccc(O)c(O)c2)cc1O` [CBK261641], the “% of control remaining” value is reported as 85.6743. The same measure for `NCCNC(=O)c1cc2cc(F)ccc2[nH]1` [CBK107345]: 85.4891. In the case of `COc1ccc(C)cc1NC(=O)CCN1CCN(C)CC1` [CBK264216], the “% of control remaining” value came to 96.7055.

As to `O=C(O)CCCC(=O)Nc1ccccc1Br` [CBK261322], the “% of control remaining” value is given as 91.0423. The same measure for `Cc1ccc(C(=O)NCCCc2ccc(Cl)cc2)c(=O)n1C` [CBK281567]: 113.489; for `FC(F)(F)c1ccc(OCCOc2ccccc2)nc1` [CBK115829]: 101.295.

For `O=C(NCCc1cccs1)NC1CCCc2c1cnn2CCO` (centres unmarked) [CBK306324], the “% of control remaining” value was found to be 7.977.

On to `CCCCCC1CC(CC(=O)NC(=S)Nc2ccccc2Cl)C(=O)O1` (centres unmarked) [CBK019495], for which the “% of control remaining” value is 94.4774. The same measure for `C(=N\Nc1nnc(-c2ccccc2)c(-c2ccccc2)n1)/c1cccnc1` [CBK262025]: 105.378; for `CN1CCN(c2ccc(NC(=S)NC(=O)c3cc4ccccc4o3)cc2)CC1` [CBK266240]: 120.594; for `Cc1ccc(CN(CC(=O)N2CCCCC2)S(=O)(=O)c2ccc(C)cc2)cc1` [CBK264646]: 109.71.

On to `CN(Cc1ccc(N2CCCCC2)cc1)S(=O)(=O)c1ccsc1C(=O)O` [CBK295333], for which the “% of control remaining” value was 61.6611.

With `Cc1nn(C)c(C)c1CC(=O)Nc1cccc(CN2CCCCC2)c1` [CBK304547], the “% of control remaining” value is 19.6785. As for `Cc1ccc(S(=O)(=O)N2CC[C@H](c3nnc(-c4ccccc4)o3)C2)cc1` [CBK289405], the “% of control remaining” value was 110.422. The same measure for `Cc1cc(=O)nc(SC(C)C(=O)O)[nH]1` (centres unmarked) [CBK264630]: 106.921; for `CCOC(=O)CN1CCN(S(=O)(=O)c2cc(Cl)ccc2Cl)CC1` [CBK044628]: 101.965; for `Cc1cnn(CCC(=O)N2CCOC(c3nc(C(C)(C)C)n[nH]3)C2)c1` (centres unmarked) [CBK305336]: 95.9408. On to `O=C1CCC(=O)N1CCOc1nccnc1N1CCN(CCc2ccccn2)CC1` [CBK084309], for which the “% of control remaining” value amounted to 75.5149.

Regarding `CC(C)OC(=O)CSc1nnc(-c2cnccn2)n1Cc1ccco1` [CBK267586], the “% of control remaining” value is 103.181. The same measure for `O=C1NC(=O)c2cc(S(=O)(=O)NCCCO)cc3cccc1c23` [CBK267602]: 96.8189.

In the case of `Cc1cc(NC(=O)CSc2ccc3nnc(-c4ccccc4)n3n2)no1` [CBK287518], the “% of control remaining” value is 92.7494.

With `COc1ccc2c(-c3cc(N)sn3)c(C)oc2c1` [CBK022260], the “% of control remaining” value is listed as 85.2625. To `Cc1cccn2c(CN3CCCOCC3)c(C(=O)N3CCOCC3)nc12` [CBK307144] belongs 70.937; to `CN(C(=O)c1cccs1)c1ccc(Oc2ncc(C(F)(F)F)cc2Cl)cc1` [CBK161654], 75.2751; to `O=C(O)c1cccc(-n2cc(-c3cccc(C(F)(F)F)c3)nn2)c1` [CBK112949], 112.335.

For the compound `Nc1ccc(-c2cncc(NCc3ccccc3)n2)cc1` [CBK065578], the “% of control remaining” value is on record as 62.214. Take `CN1CCN(C(=O)CSc2nc(-c3cccs3)cc(C(F)(F)F)n2)CC1` [CBK307372]: the “% of control remaining” value was determined as 93.5155. For `Cc1cc(C)n(C2CCN(Cc3cn(C)c4cc(F)ccc34)CC2)n1` [CBK281806], the “% of control remaining” value is recorded as 96.7313. To `CN(C)CCCNc1c(N)c(=O)oc2ccccc12` [CBK261468] belongs 95.2216; to `CN(C)S(=O)(=O)N1CCC(Cc2ccccc2)CC1` [CBK263768], 95.3745; to `COc1ccc(Nc2ccc(-c3cccc(OC(F)(F)F)c3)cn2)cn1` [CBK037022], 138.108.

With `COC1CCCC(C(=O)N2CCC(c3onc4c3CCCC4)CC2)C1` (centres unmarked) [CBK284598], the “% of control remaining” value is on record as 65.3233.

With `COc1ccc(Cl)cc1NC(=O)NC(=O)C1CCN(CCOc2cccc3ccccc23)CC1` [CBK035116], the “% of control remaining” value came out at 77.8537. The same measure for `COCc1ccc(C(=O)N2CCN3C(=O)CCC32C)o1` (centres unmarked) [CBK282091]: 84.4619; for `Cn1cc(C(=O)NCC(c2ccccc2F)N2CCCC2)ccc1=O` (centres unmarked) [CBK281950]: 137.085. Consider `Cc1ccc(-c2nnc(SCC(=O)Nc3ccc(N4CCOCC4)cc3)n2C)cc1` [CBK270247], for which the “% of control remaining” value was 74.4308.

Consider `CCc1cccc(-n2nc(C)c3c2NC(=O)CC3C(=O)c2ccc(CC)s2)c1` (centres unmarked) [CBK294435], for which the “% of control remaining” value was 70.3488. The same measure for `COC(=O)CC(C)(C)/C(C)=N/NS(=O)(=O)c1ccc(C)cc1` [CBK263602]: 98.2811; for `CCn1nccc1N1CCCC(NC(=O)CCc2ccccc2Cl)C1=O` (centres unmarked) [CBK305455]: 64.114. For `COc1cccc(CN2CCN(C(=O)c3cc(C)[nH]c3C)[C@@H](C)C2)c1` [CBK284255], the “% of control remaining” value worked out at 89.6631. For the compound `Nc1nonc1-c1nc2ccccc2n1Cc1ccc(-c2nn[nH]n2)cc1` [CBK267648], the “% of control remaining” value worked out at 93.0871. `O=C(CSCc1ccccc1Cl)NNC(=O)c1cccnc1` [CBK267826]: the “% of control remaining” value stood at 82.0892. `O=C(NC1CCCCC1)N1CC[C@H](c2nc3ccccc3o2)C1` [CBK289372]: the “% of control remaining” value was determined as 95.6138. As to `Cc1nc(-c2ccc(NCCc3nc(C4CC4)cs3)nc2)[nH]c(=O)c1C` [CBK304424], the “% of control remaining” value was found to be 43.7599.
